Laboratory results as given in paper PMC9911399, “Two distinct binding modes provide the RNA-binding protein RbFox with extraordinary sequence specificity”.
Where a chain is given by its changes, count along the chain named. The list shows a part of the results.

T1: RBFOX1 RRM (Homo sapiens, UniProt Q9NWB1 109-208)
T1 sequence: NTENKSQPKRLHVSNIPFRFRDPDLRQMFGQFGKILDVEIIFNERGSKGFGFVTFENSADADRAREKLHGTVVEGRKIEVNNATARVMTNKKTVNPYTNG

B1: ACAGCAU (DNA:RNA)
RNA: GGGAGACCGGAAUUCAGAUUGUCCACAGCAUUUAAAUCCCGUCGUAGCCACCA
DNA 1: CAATCTGAATTCCGGTCTCCC
DNA 2: TGGTGGCTACGACGGGATT
B2: GCCAAGU (DNA:RNA)
RNA: B1 RNA with A25G, A27C, G28A, C29A, A30G
DNA 1: CAATCTGAATTCCGGTCTCCC
DNA 2: TGGTGGCTACGACGGGATT
B3: UCACCUA (DNA:RNA)
RNA: B1 RNA with A25U, G28C, A30U, U31A
DNA 1: CAATCTGAATTCCGGTCTCCC
DNA 2: TGGTGGCTACGACGGGATT
B4: AUAAUAA (DNA:RNA)
RNA: B1 RNA with C26U, G28A, C29U, U31A
DNA 1: CAATCTGAATTCCGGTCTCCC
DNA 2: TGGTGGCTACGACGGGATT
B5: UAAAGAC (DNA:RNA)
RNA: B1 RNA with A25U, C26A, G28A, C29G, U31C
DNA 1: CAATCTGAATTCCGGTCTCCC
DNA 2: TGGTGGCTACGACGGGATT
B6: AUUCAUA (DNA:RNA)
RNA: B1 RNA with C26U, A27U, G28C, C29A, A30U, U31A
DNA 1: CAATCTGAATTCCGGTCTCCC
DNA 2: TGGTGGCTACGACGGGATT
B7: GUAUCUC (DNA:RNA)
RNA: B1 RNA with A25G, C26U, G28U, A30U, U31C
DNA 1: CAATCTGAATTCCGGTCTCCC
DNA 2: TGGTGGCTACGACGGGATT
B8: CUAUCGA (DNA:RNA)
RNA: B1 RNA with A25C, C26U, G28U, A30G, U31A
DNA 1: CAATCTGAATTCCGGTCTCCC
DNA 2: TGGTGGCTACGACGGGATT
B9: GCGCGAA (DNA:RNA)
RNA: B1 RNA with A25G, A27G, G28C, C29G, U31A
DNA 1: CAATCTGAATTCCGGTCTCCC
DNA 2: TGGTGGCTACGACGGGATT
B10: UUGACAU (DNA:RNA)
RNA: B1 RNA with A25U, C26U, A27G, G28A
DNA 1: CAATCTGAATTCCGGTCTCCC
DNA 2: TGGTGGCTACGACGGGATT
B11: UAAAGUC (DNA:RNA)
RNA: B1 RNA with A25U, C26A, G28A, C29G, A30U, U31C
DNA 1: CAATCTGAATTCCGGTCTCCC
DNA 2: TGGTGGCTACGACGGGATT
B12: UAAACCG (DNA:RNA)
RNA: B1 RNA with A25U, C26A, G28A, A30C, U31G
DNA 1: CAATCTGAATTCCGGTCTCCC
DNA 2: TGGTGGCTACGACGGGATT
B13: AUCGGAU (DNA:RNA)
RNA: B1 RNA with C26U, A27C, C29G
DNA 1: CAATCTGAATTCCGGTCTCCC
DNA 2: TGGTGGCTACGACGGGATT
B14: UGACUAC (DNA:RNA)
RNA: B1 RNA with A25U, C26G, G28C, C29U, U31C
DNA 1: CAATCTGAATTCCGGTCTCCC
DNA 2: TGGTGGCTACGACGGGATT
B15: GAUUUGC (DNA:RNA)
RNA: GGGAGACCGGAAUUCAGAUUGUCCGAUUUGCUUAAAUCCCGUCGUAGCCACCA
DNA 1: CAATCTGAATTCCGGTCTCCC
DNA 2: TGGTGGCTACGACGGGATT
B16: GCAACAG (DNA:RNA)
RNA: B1 RNA with A25G, G28A, U31G
DNA 1: CAATCTGAATTCCGGTCTCCC
DNA 2: TGGTGGCTACGACGGGATT
B17: GCGCCCA (DNA:RNA)
RNA: B1 RNA with A25G, A27G, G28C, A30C, U31A
DNA 1: CAATCTGAATTCCGGTCTCCC
DNA 2: TGGTGGCTACGACGGGATT
B18: AUGUACA (DNA:RNA)
RNA: B1 RNA with C26U, A27G, G28U, C29A, A30C, U31A
DNA 1: CAATCTGAATTCCGGTCTCCC
DNA 2: TGGTGGCTACGACGGGATT
B19: CGUCCUC (DNA:RNA)
RNA: B15 RNA with G25C, A26G, U28C, U29C, G30U
DNA 1: CAATCTGAATTCCGGTCTCCC
DNA 2: TGGTGGCTACGACGGGATT
B20: GCAGCUG (DNA:RNA)
RNA: B1 RNA with A25G, A30U, U31G
DNA 1: CAATCTGAATTCCGGTCTCCC
DNA 2: TGGTGGCTACGACGGGATT
B21: UUCGUCC (DNA:RNA)
RNA: B15 RNA with G25U, A26U, U27C, U28G, G30C
DNA 1: CAATCTGAATTCCGGTCTCCC
DNA 2: TGGTGGCTACGACGGGATT
B22: CAAUAUA (DNA:RNA)
RNA: B15 RNA with G25C, U27A, U29A, G30U, C31A
DNA 1: CAATCTGAATTCCGGTCTCCC
DNA 2: TGGTGGCTACGACGGGATT
B23: CUCAUCU (DNA:RNA)
RNA: B1 RNA with A25C, C26U, A27C, G28A, C29U, A30C
DNA 1: CAATCTGAATTCCGGTCTCCC
DNA 2: TGGTGGCTACGACGGGATT
B24: ACUCUGG (DNA:RNA)
RNA: B15 RNA with G25A, A26C, U28C, C31G
DNA 1: CAATCTGAATTCCGGTCTCCC
DNA 2: TGGTGGCTACGACGGGATT
B25: CGCCUCG (DNA:RNA)
RNA: B15 RNA with G25C, A26G, U27C, U28C, G30C, C31G
DNA 1: CAATCTGAATTCCGGTCTCCC
DNA 2: TGGTGGCTACGACGGGATT
B26: CAGAAUU (DNA:RNA)
RNA: B1 RNA with A25C, C26A, A27G, G28A, C29A, A30U
DNA 1: CAATCTGAATTCCGGTCTCCC
DNA 2: TGGTGGCTACGACGGGATT
B27: UCACAAG (DNA:RNA)
RNA: B1 RNA with A25U, G28C, C29A, U31G
DNA 1: CAATCTGAATTCCGGTCTCCC
DNA 2: TGGTGGCTACGACGGGATT
B28: GGAUACG (DNA:RNA)
RNA: B15 RNA with A26G, U27A, U29A, G30C, C31G
DNA 1: CAATCTGAATTCCGGTCTCCC
DNA 2: TGGTGGCTACGACGGGATT
B29: GAUUAAA (DNA:RNA)
RNA: B15 RNA with U29A, G30A, C31A
DNA 1: CAATCTGAATTCCGGTCTCCC
DNA 2: TGGTGGCTACGACGGGATT
B30: UUGGCGG (DNA:RNA)
RNA: B1 RNA with A25U, C26U, A27G, A30G, U31G
DNA 1: CAATCTGAATTCCGGTCTCCC
DNA 2: TGGTGGCTACGACGGGATT
B31: ACAUGAA (DNA:RNA)
RNA: B1 RNA with G28U, C29G, U31A
DNA 1: CAATCTGAATTCCGGTCTCCC
DNA 2: TGGTGGCTACGACGGGATT

molecular target: T1, RBFOX1 RRM; test: EMSA; HiTS-Eq, 1 nM pool, 10 min; buffer printed only for the single-RNA assays: 10 mM Tris pH 7.5, 150 mM NaCl, 3.4 mM EDTA, 0.001% NP-40, 30 C; conditions: tags: His6 N-terminal (pET28a); label: 5' 32P
Summary of the method: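 Purified RbFox RRM (wild type or mutant) was equilibrated for 10 min in 50 µL with 1 nM of a 5′-radiolabelled pool of RNA with 7 randomized nucleotides, its flanks annealed to DNA oligonucleotides, across increasing protein concentrations. Free RNA was separated by 8% native PAGE, excised, reverse-transcribed, PCR-barcoded and sequenced on an Illumina HiSeq 2500. Relative association constants came from read-count changes of each variant against the control reaction, normalised to the cognate motif.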

Binder | binding signal
B1 | 0.00434 KA relative to UGCAUGU
B2 | 0.00868 KA relative to UGCAUGU
B3 | 0.00184 KA relative to UGCAUGU
B4 | 0.00235 KA relative to UGCAUGU
B5 | 0.00563 KA relative to UGCAUGU
B6 | 0.00174 KA relative to UGCAUGU
B7 | 0.0129 KA relative to UGCAUGU
B8 | 0.0115 KA relative to UGCAUGU
B9 | 0.0104 KA relative to UGCAUGU
B10 | 0.00701 KA relative to UGCAUGU
B11 | 0.00892 KA relative to UGCAUGU
B12 | 0.00174 KA relative to UGCAUGU
B13 | 0.0062 KA relative to UGCAUGU
B14 | 0.0122 KA relative to UGCAUGU
B15 | 0.0223 KA relative to UGCAUGU
B16 | 0.00902 KA relative to UGCAUGU

Binder | binding signal
B17 | 0.00671 KA relative to UGCAUGU
B18 | 0.00695 KA relative to UGCAUGU
B19 | 0.00542 KA relative to UGCAUGU
B20 | 0.0142 KA relative to UGCAUGU
B21 | 0.00975 KA relative to UGCAUGU
B22 | 0.000945 KA relative to UGCAUGU
B23 | 0.0034 KA relative to UGCAUGU
B24 | 0.0156 KA relative to UGCAUGU
B25 | 0.00917 KA relative to UGCAUGU
B26 | 0.00225 KA relative to UGCAUGU
B27 | 0.00493 KA relative to UGCAUGU
B28 | 0.0133 KA relative to UGCAUGU
B29 | 0.00427 KA relative to UGCAUGU
B30 | 0.0247 KA relative to UGCAUGU
B31 | 0.00359 KA relative to UGCAUGU
